# Measured values taken from PubChem BioAssay (Tox21).
# Values joined by “and” are separate entries in the source; they are usually repeats but may differ in a detail not shown here. Equal entries are not always repeated. Active and inactive are the calls of the source. Unless noted, the call rests on the fitted dose curve; in most records, active means well fitted curve in the direction sought with a large enough effect in the repeat runs; inconclusive means weak or mixed curves; inactive means no such curve, though single readings can be large; an effect the other way counts as inactive or inconclusive.
# Key:
# [1] = qHTS assay to test for compound auto fluorescence at 460 nm (blue) in HepG2 cell free culture (AID 720685); settings: Cell-free culture medium, blue autofluorescence 405/460 nm; series mostly up to 91.3 µM; further: on the % scale 0 is the no-effect control and ±100 the full control effect
# Summary of the method: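 Compound (23 nL) or DMSO pinned into cell-free MEM with 10% FBS; blue fluorescence read at 405/460 nm excitation/emission, expressed as auto-fluorescence equivalency to triamterene.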
# [2] = molecular target: Glucocorticoid receptor (Homo sapiens) (UniProt P04150); assay: qHTS assay to identify small molecule agonists of the glucocorticoid receptor (GR) signaling pathway (AID 720691; active means well fitted activation curve with a large enough effect in the signal ratio in the repeat runs, not every such curve was filed as active; inconclusive means weak or mixed curves, or effect the other way; inactive means no such curve, though single readings can be large or run the other way; the % refers to the signal ratio; further: potency means the concentration at half of the fitted maximal effect; on activation: on the % scale 0 is the no-effect control and ±100 the full control effect); settings: GR-bla HeLa, beta-lactamase reporter ratio, 18 h; activation: at 62.4 µM (top of the series) unless noted
# Summary of the method: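 qHTS in GR-bla HeLa cells: 4 h settling at 37 C/5% CO2, 18 h compound incubation at 37 C, 2 h LiveBLAzer B/G FRET substrate at room temperature, fluorescence intensity measured.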
# [3] = molecular target: Glucocorticoid receptor (Homo sapiens) (UniProt P04150); assay: qHTS assay to identify small molecule antagonists of the glucocorticoid receptor (GR) signaling pathway (AID 720692; active means well fitted inhibition curve with a large enough effect in the signal ratio in the repeat runs, not every such curve was filed as active; inconclusive means weak or mixed curves, or effect the other way; inactive means no such curve, though single readings can be large or run the other way; the % refers to the signal ratio; further: potency means the concentration at half of the fitted maximal effect; on activity change, negative = inhibition: on the % scale 0 is the no-effect control and ±100 the full control effect); settings: GR-bla HeLa, beta-lactamase FRET ratio, dexamethasone-stimulated, 18 h; activity change, negative = inhibition: at 58.5 µM (top of the series) unless noted
# Summary of the method: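 Inhibition of glucocorticoid signalling is measured in HeLa cells with a GRE-controlled beta-lactamase reporter; cells are co-treated with compound and 5 nM dexamethasone (final) for 18 h before FRET substrate readout.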
# [4] = qHTS assay for identifying genotoxic compounds that show differential cytotoxicity against isogenic chicken DT40 cell lines with known DNA damage response pathways - wild type cell line (AID 743012); settings: DT40 wild type chicken cells viability, CellTiter-Glo, 40 h; activity change, negative = cytotoxicity: at 68.4 µM (top of the series) unless noted; further: nearly all actives have a fitted effect of over 60% in size; further: potency means the concentration at half of the fitted maximal effect; on activity change, negative = cytotoxicity: on the % scale 0 is the no-effect control and ±100 the full control effect
# Summary of the method: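 First, wild type DT40 cells were plated at 300 per well and equilibrated about 0.5 h at 37 C/5% CO2. Next, compounds in DMSO were added and exposure lasted 40 h. Finally, CellTiter-Glo was added for 30 min at room temperature and luminescence recorded.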
# [5] = qHTS assay to identify small molecule antagonists of the androgen receptor (AR) signaling pathway - cell viability counter screen (AID 743033; further: nearly all actives have a fitted effect of over 45% in size; further: potency means the concentration at half of the fitted maximal effect); settings: AR-bla HEK293 viability, CellTiter-Glo luminescence, 16 h; activity change, negative = cytotoxicity: at 58.5 µM (top of the series) unless noted
# [6] = qHTS assay to test for compound auto fluorescence at 460 nm (blue) in HepG2 cells (AID 720687); settings: autofluorescence 405/460 nm, 1 h; series mostly up to 91.3 µM; further: potency means the concentration at half of the fitted maximal effect
# Summary of the method: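 HepG2 cells in MEM with 10% FBS, attached overnight at 37 C, were exposed to compound or DMSO for 1 hr at 37 C, 5% CO2. Blue fluorescence was read at 405/460 nm, with triamterene as reference fluorophore.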
# [7] = qHTS assay for identifying genotoxic compounds that show differential cytotoxicity against isogenic chicken DT40 cell lines with known DNA damage response pathways - Rev3 mutant cell line (AID 743014); settings: chicken DT40 Rev3-/- viability, CellTiter-Glo, 40 h; activity, negative = cytotoxicity: at 68.4 µM (top of the series) unless noted; further: nearly all actives have a fitted effect of over 55% in size; further: potency means the concentration at half of the fitted maximal effect
# [8] = qHTS assay for identifying genotoxic compounds that show differential cytotoxicity against isogenic chicken DT40 cell lines with known DNA damage response pathways - Rad54/Ku70 mutant cell line (AID 743015); settings: DT40 Rad54/Ku70 mutant viability, CellTiter-Glo, 40 h; activity change, negative = cytotoxicity: at 66.8 µM (top of the series); further: potency means the concentration at half of the fitted maximal effect; nearly all actives have a fitted effect of over 60% in size
# [9] = qHTS assay to identify small molecule antagonists of the glucocorticoid receptor (GR) signaling pathway - cell viability counter screen (AID 720693); settings: GR-bla HeLa viability, CellTiter-Glo luminescence, 18 h, with 5 nM dexamethasone present; viability change, negative = cytotoxic: at 58.5 µM (top of the series) unless noted; further: nearly all actives have a fitted effect of over 55% in size; further: potency means the concentration at half of the fitted maximal effect
# [10] = molecular target: Androgen receptor (Homo sapiens) (UniProt P10275); assay: qHTS assay to identify small molecule antagonists of the androgen receptor (AR) signaling pathway (AID 743035; active means well fitted inhibition curve with a large enough effect in the signal ratio in the repeat runs, not every such curve was filed as active; inconclusive means weak or mixed curves, or effect the other way; inactive means no such curve, though single readings can be large or run the other way; the % refers to the signal ratio; further: potency means the concentration at half of the fitted maximal effect); settings: HEK293 AR-UAS-bla, R1881-stimulated, beta-lactamase FRET, 16 h; activity change, negative = inhibition: at 58.5 µM (top of the series) unless noted
# Summary of the method: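 Beta-lactamase FRET read (2 h RT incubation with LiveBLAzer B/G) following 16 h of compound plus R1881 treatment of AR-UAS-bla HEK293 cells, which had been pre-incubated 4 h at 37C.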
# Tags describe the fitted curve by direction and shape or compound fluorescence and quenching.
# Chain of UniProt P10275 (P10275 whole entry, looked up): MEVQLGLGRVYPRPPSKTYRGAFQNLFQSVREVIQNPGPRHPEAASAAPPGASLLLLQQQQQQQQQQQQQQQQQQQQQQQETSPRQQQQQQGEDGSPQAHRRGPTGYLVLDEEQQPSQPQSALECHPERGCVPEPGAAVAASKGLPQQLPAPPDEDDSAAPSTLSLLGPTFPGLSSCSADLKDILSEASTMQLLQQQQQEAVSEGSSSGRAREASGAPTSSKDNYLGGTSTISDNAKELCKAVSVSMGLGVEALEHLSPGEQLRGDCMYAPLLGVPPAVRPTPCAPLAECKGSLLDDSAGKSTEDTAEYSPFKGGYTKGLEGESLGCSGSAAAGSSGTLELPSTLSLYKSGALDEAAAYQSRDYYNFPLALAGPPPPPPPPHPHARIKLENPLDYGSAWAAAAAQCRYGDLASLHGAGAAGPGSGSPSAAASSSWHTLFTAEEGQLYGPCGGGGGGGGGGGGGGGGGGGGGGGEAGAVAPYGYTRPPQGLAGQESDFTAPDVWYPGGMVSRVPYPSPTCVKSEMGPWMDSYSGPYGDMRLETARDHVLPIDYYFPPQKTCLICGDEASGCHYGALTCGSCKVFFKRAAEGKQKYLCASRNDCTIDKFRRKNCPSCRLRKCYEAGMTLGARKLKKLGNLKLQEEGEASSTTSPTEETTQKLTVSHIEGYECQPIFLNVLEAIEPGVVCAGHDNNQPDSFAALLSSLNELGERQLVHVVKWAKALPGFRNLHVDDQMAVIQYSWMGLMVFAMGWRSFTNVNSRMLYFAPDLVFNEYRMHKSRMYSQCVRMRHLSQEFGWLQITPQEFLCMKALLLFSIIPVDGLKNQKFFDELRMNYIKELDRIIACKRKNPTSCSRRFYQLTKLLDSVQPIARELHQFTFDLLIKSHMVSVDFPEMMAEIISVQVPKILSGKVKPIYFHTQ
# Chain of UniProt P04150 (P04150 whole entry, looked up): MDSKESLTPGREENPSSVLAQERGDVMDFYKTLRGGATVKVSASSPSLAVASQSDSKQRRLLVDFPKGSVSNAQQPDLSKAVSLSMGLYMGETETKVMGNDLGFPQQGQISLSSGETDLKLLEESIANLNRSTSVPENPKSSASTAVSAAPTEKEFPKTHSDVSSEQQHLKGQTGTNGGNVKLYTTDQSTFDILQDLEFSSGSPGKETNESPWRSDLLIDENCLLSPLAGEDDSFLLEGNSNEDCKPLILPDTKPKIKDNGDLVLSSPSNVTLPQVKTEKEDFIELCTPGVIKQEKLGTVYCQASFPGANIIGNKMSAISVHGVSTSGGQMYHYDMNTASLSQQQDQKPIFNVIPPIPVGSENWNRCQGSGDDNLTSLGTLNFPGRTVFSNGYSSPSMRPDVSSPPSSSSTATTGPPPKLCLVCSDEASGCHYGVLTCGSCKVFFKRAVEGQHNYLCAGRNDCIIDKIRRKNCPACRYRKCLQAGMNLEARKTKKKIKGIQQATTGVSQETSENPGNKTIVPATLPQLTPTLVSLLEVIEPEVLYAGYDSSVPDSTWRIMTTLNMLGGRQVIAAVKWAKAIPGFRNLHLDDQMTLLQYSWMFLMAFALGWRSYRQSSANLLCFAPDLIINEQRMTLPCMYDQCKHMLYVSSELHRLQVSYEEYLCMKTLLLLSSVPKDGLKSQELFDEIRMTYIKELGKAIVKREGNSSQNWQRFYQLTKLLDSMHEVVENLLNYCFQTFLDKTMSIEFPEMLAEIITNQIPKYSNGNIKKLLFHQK
structure (smiles),measurement,setting,value
CCCSc1ccc2nc(NC(=O)OC)[nH]c2c1,Potency,[1],inactive
same,activation,[2],inconclusive: 3.2% [phenotype inactive] [at 29.2 µM]
same,Potency,[3],"inconclusive: 2.29 µM [activator] and inconclusive: 4.36 µM [activator, full curve]"
same,Potency,[4],active: 227 nM and active: 1.09 µM
same,Potency,[5],"inconclusive: 0.0026 µM [cytotoxic, full curve, poor fit]"
CC1=C(O)C(=O)OC1C (centres undefined),Potency,[2],inactive
CC(=O)OCC(=O)[C@@]12OC(C)(C)O[C@@H]1C[C@H]1[C@@H]3C[C@H](F)C4=CC(=O)C=C[C@]4(C)[C@@]3(F)[C@@H](O)C[C@@]12C,Potency,[2],active: 0.0064 µM
same,Potency,[3],"inconclusive: 10.2 nM [activator, full curve]"
CC/C(=C\C(=N/O)C(N)=O)C(C)[N+](=O)[O-] (centres undefined),Potency,[6],inactive
same,Potency,[3],inactive
O=C(c1ccccc1)C(O)c1ccccc1 (centres undefined),Potency,[2],"inconclusive: 8.49 µM [rising, partial curve]"
same,"activity change, negative = inhibition",[3],inconclusive: 3.14%
CC(=O)SCc1ccco1,Potency,[2],inactive
CC[N+]1(CC)CCC(=C(c2ccccc2)c2ccccc2)C1C (centres undefined),Potency,[1],inactive
same,Potency,[7],active: 16.8 µM
NCC(=O)O,Potency,[2],inactive
NCCNCCNCCN,Potency,[6],inactive
same,Potency,[4],"inconclusive: 33.5 µM [cytotoxic, single point]"
same,Potency,[7],"inconclusive: 26.6 µM [cytotoxic, partial curve, poor fit]"
same,Potency,[8],"inconclusive: 33.5 µM [cytotoxic, single point]"
CC(C)C[C@H](NC(=O)OCC1c2ccccc2-c2ccccc21)C(=O)O,Potency,[2],"inconclusive: 30.9 µM [rising, partial curve]"
same,Potency,[3],inactive
CC1=NN(c2cc(Cl)c(S(=O)(=O)O)cc2Cl)C(=O)C1N=Nc1ccc(S(=O)(=O)O)cc1 (centres undefined),Potency,[6],"inconclusive: 2.51 µM [fluorescent, single point]"
same,Potency,[4],inactive
CCN(CC)CCNc1ccc(CNC=O)c2sc3ccc(OC)cc3c(=O)c12,Potency,[2],active: 49 µM [inconclusive]
same,Potency,[3],"inconclusive: 3470 nM [cytotoxic, full curve]"
same,Potency,[9],active: 38.9 µM
same,Potency,[4],active: 8.63 µM
OC[C@H](Cc1cccc(O)c1)[C@H](CO)Cc1cccc(O)c1,Potency,[2],inactive
same,Potency,[3],inactive
same,Potency,[4],"inconclusive: 55.8 µM [cytotoxic, partial curve, poor fit]"
same,Potency,[7],"inconclusive: 70.3 µM [cytotoxic, single point]"
O=P(OC(CCl)CCl)(OC(CCl)CCl)OC(CCl)CCl,Potency,[2],"inconclusive: 1.09 µM [activator, single point]"
same,Potency,[3],active: 21.8 µM and active: 30.9 µM
same,Potency,[4],"inconclusive: 68.2 µM [cytotoxic, single point] and active: 43.3 µM"
same,Potency,[7],active: 30.5 µM and active: 19.3 µM
same,Potency,[8],active: 54.2 µM and active: 61.1 µM
CC1CCc2cc(F)cc3c(=O)c(C(=O)O)cn1c23 (centres undefined),Potency,[2],inactive
same,"activity change, negative = inhibition",[3],inconclusive: 25.1%
same,Potency,[4],inactive
Cc1ccccc1C(=O)Nc1ccc(C(=O)N2CCCC(O)c3cc(Cl)ccc32)c(C)c1 (centres undefined),Potency,[2],"inconclusive: 12 µM [rising, partial curve]"
same,"activity change, negative = inhibition",[3],inconclusive: -55.1%
same,Potency,[7],"inconclusive: 33.5 µM [cytotoxic, single point]"
C[C@@H]1C[C@H]2[C@@H]3CCC4=CC(=O)C=C[C@]4(C)[C@@]3(F)[C@@H](O)C[C@]2(C)[C@H]1C(=O)CO,Potency,[2],active: 0.0085 µM [inconclusive]
same,Potency,[3],"inconclusive: 26.8 nM [activator, full curve]"
same,Potency,[7],"inconclusive: 0.841 µM [cytotoxic, full curve]"
CCCCCCCCCCCCCCCC(=O)OC/C=C(C)/C=C/C=C(C)/C=C/C1=C(C)CCCC1(C)C,Potency,[2],inactive
same,"activity change, negative = inhibition",[3],inconclusive: -23.6% and inconclusive: -35.3%
same,Potency,[4],"inconclusive: 33.5 µM [cytotoxic, partial curve, poor fit] and inactive"
same,Potency,[7],"inconclusive: 68.6 µM [cytotoxic, single point]"
same,Potency,[8],"inconclusive: 68.6 µM [cytotoxic, single point]"
Cc1oc2c(NC(=O)c3c(Cl)cccc3Cl)cccc2c1C(C)(C)O,Potency,[2],"inconclusive: 54.9 µM [rising, partial curve, poor fit]"
same,Potency,[3],"inconclusive: 61600 nM [rising, partial curve, poor fit]"
same,Potency,[4],active: 43.3 µM
same,Potency,[7],active: 27.3 µM
Nc1ccnc(=O)[nH]1,Potency,[2],inactive
same,Potency,[3],inactive
Nc1cnn([C@@H]2O[C@H](CO)[C@@H](O)[C@H]2O)c(=O)n1,activation,[2],inconclusive: -6.23% [phenotype inactive]
same,Potency,[3],"inconclusive: 219 nM [activator, full curve]"
same,Potency,[9],"inconclusive: 38.9 µM [cytotoxic, partial curve]"
same,Potency,[7],"inconclusive: 4.86 µM [cytotoxic, full curve]"
COc1ccc2c(c1)c(CC(=O)O)c(C)n2C(=O)c1ccc(Cl)cc1,activation,[2],inconclusive: -13.1%
same,Potency,[3],"inconclusive: 1.9 µM [fluorescent, full curve, poor fit] and inconclusive: 8.76 µM [fluorescent, full curve, poor fit]"
same,"activity change, negative = inhibition",[3],inconclusive: -37.1%
same,Potency,[7],"inconclusive: 33.5 µM [cytotoxic, single point]"
same,Potency,[8],"inconclusive: 68.6 µM [cytotoxic, single point]"
same,"activity change, negative = inhibition",[10],inconclusive: 9.11%
CCCOC(C(=O)OC1CCN(C)CC1)(c1ccccc1)c1ccccc1,Potency,[2],inactive
same,Potency,[3],inactive
same,Potency,[4],active: 5.96 µM
same,Potency,[5],"inconclusive: 0.0107 µM [cytotoxic, full curve, poor fit]"
COc1cc2c(cc1OC)-c1cc(=Nc3c(C)cc(C)cc3C)n(C)c(=O)n1CC2,Potency,[2],"inconclusive: 26.8 µM [cytotoxic, single point]"
same,Potency,[3],"inconclusive: 30100 nM [cytotoxic, single point]"
same,Potency,[9],"inconclusive: 26.8 µM [cytotoxic, single point]"
same,Potency,[4],active: 2.66 µM
same,"activity change, negative = cytotoxicity",[5],inconclusive: -43.8% [cytotoxic]
same,Potency,[10],active: 19 µM
CCO[Si](CCC#N)(OCC)OCC,Potency,[2],inactive
same,Potency,[3],"inactive and inconclusive: 9.77 µM [activator, full curve, poor fit]"
same,Potency,[4],"inconclusive: 2.77 µM [rising, single point]"
same,Potency,[7],inactive
C[N+]1(CC2COC(c3ccccc3)(c3ccccc3)O2)CCCCC1 (centres undefined),Potency,[2],"inconclusive: 2.68 µM [activator, single point]"
same,Potency,[3],inactive
same,Potency,[7],active: 29.8 µM
C[C@]12CCC(=O)C=C1CC[C@@H]1[C@@H]2CC[C@@]2(C)[C@H]1CC[C@]2(O)C(=O)CO,Potency,[2],active: 12 µM
same,Potency,[3],active: 338 nM
same,Potency,[4],"inconclusive: 26.6 µM [cytotoxic, partial curve]"
same,Potency,[7],"inconclusive: 9.44 µM [cytotoxic, partial curve, poor fit]"
same,Potency,[8],"inconclusive: 33.5 µM [cytotoxic, partial curve, poor fit]"
CCC1(c2ccccc2)C(=O)NCNC1=O,Potency,[2],inactive
same,Potency,[3],inactive
CCC(=O)O[C@]1(C(=O)CCl)[C@@H](C)C[C@H]2[C@@H]3CCC4=CC(=O)C=C[C@]4(C)[C@@]3(F)[C@@H](O)C[C@@]21C,Potency,[2],active: 0.0006 µM
same,Potency,[3],"inconclusive: 1.7 nM [falling, full curve, poor fit]"
same,Potency,[9],"inconclusive: 0.0952 µM [rising, single point]"
same,Potency,[7],active: 2.37 µM
same,Potency,[5],"inconclusive: 0.0169 µM [cytotoxic, full curve, poor fit]"
same,Potency,[10],active: 7.56 µM
CCCCC(=O)O[C@]1(C(=O)CO)CC[C@H]2[C@@H]3CCC4=CC(=O)CC[C@]4(C)[C@H]3[C@@H](O)C[C@@]21C,Potency,[2],active: 0.0425 µM [inconclusive]
same,Potency,[3],"inconclusive: 53.5 nM [activator, full curve]"
same,Potency,[4],inconclusive: 33.5 µM [cytotoxic]
same,Potency,[7],inactive
same,Potency,[8],"inconclusive: 33.5 µM [cytotoxic, single point]"
CC(=O)N1C[C@H](O)C[C@H]1C(=O)O,Potency,[2],inactive
same,Potency,[3],inactive
same,Potency,[7],"inconclusive: 13.3 µM [rising, partial curve, poor fit]"
O=C(O)c1cc(O)c(O)c(O)c1,Potency,[2],inactive
same,Potency,[3],"inconclusive: 535 nM [activator, single point]"
same,"activity change, negative = inhibition",[3],inconclusive: -9.18% [at 78.9 µM]
same,Potency,[8],"inconclusive: 33.5 µM [cytotoxic, single point]"
ICCc1ccccc1,Potency,[2],inconclusive: 42.8 µM
same,Potency,[3],"inconclusive: 27000 nM [activator, partial curve]"
same,Potency,[4],"inconclusive: 67.2 µM [cytotoxic, single point]"
same,Potency,[7],inconclusive: 67.2 µM [cytotoxic]
same,Potency,[8],inconclusive: 67.2 µM [cytotoxic]
Nc1ccc(N)c2c1C(=O)c1ccccc1C2=O,Potency,[2],inactive
same,Potency,[3],"inconclusive: 6920 nM [falling, partial curve, poor fit]"
same,Potency,[9],inactive
same,Potency,[7],active: 27.3 µM
same,Potency,[8],active: 7.7 µM
same,"activity change, negative = inhibition",[10],inconclusive: -8.41%
CC(O)CC(C)(C)O (centres undefined),Potency,[2],inactive
same,Potency,[3],inactive
COC(=O)c1ccccc1C(=O)c1ccc(OCCN2CCCCC2)cc1,Potency,[2],"inconclusive: 23.9 µM [activator, partial curve]"
same,"activity change, negative = inhibition",[3],inconclusive: 19%
same,Potency,[7],active: 1.06 µM
c1ccc(CN(Cc2ccccc2)Cc2ccccc2)cc1,Potency,[2],inactive
same,Potency,[3],"inconclusive: 61600 nM [activator, single point]"
same,Potency,[4],inactive
same,Potency,[7],"inconclusive: 17.2 µM [cytotoxic, full curve]"
